Results reported in ChEMBL document CHEMBL1157539, “Thousands of chemical starting points for antimalarial lead identification” (Nature, 2010).
Whole data set: some 13,000 compounds, median “IFI” near 4, cut for the highest 2% near 17. Some of the results follow.

Experiment: GSK_TCMDC: Inhibition Frequency Index (IFI). The number of non-kinase HTS assays where a compound showed > 50 % inhibition, expressed as a percentage of the number of such assays in which the compound was tested (-0 is zero)
Type: functional

| Compound | IFI [%] |
| --- | --- |
| Cc1cc(F)ccc1[C@H]1CNCCN1C(=O)N(C)[C@@H](C)c1cc(C(F)(F)F)cc(C(F)(F)F)c1 | 7.69 |
| CCCNCCc1ccc(NS(=O)(=O)c2cccc(-c3ccc(Cl)cc3)c2)cc1 | 15.7 |
| COc1ccc(CC(=O)NC(CCCN2CCC3(CC2)OCc2ccccc23)c2ccc(Cl)c(Cl)c2)cc1 (stereo unspecified) | 8.11 |
| COc1ccc2ccccc2c1C=NN=c1cc(C)[nH]c2c(C)cccc12 | 1.48 |
| COc1cccc(OC2CCN(C(=O)c3cc(C(C)(C)C)nn3Cc3ccccc3)CC2)c1 | -0 |
| Cc1ccc(NCc2cccc(F)c2)cc1S(=O)(=O)N[C@@H]1CCN(C#N)C1 | 2.94 |
| O=C(CNC(=O)c1ccc(O)cc1)Nc1cccc(-c2cccc(-c3nc4cc(C(F)(F)F)ccc4[nH]3)c2)c1 | 6.19 |
| CCOc1cccc(C(=O)Nc2cccc(CN3CCCN(Cc4cccc(O)c4)CC3)c2)c1 | 3.85 |
| COc1cccc(CN2Cc3ccccc3OC3(CCN(Cc4c[nH]c5cnccc45)CC3)C2)c1 | 11.1 |
| COc1cc2ccccc2cc1CNCCCCCCNCc1cc2ccccc2cc1OC | 7.91 |
| CO/C(=C\C=C\c1cc2cc(Cl)c(Cl)cc2[nH]1)C(=O)NC1CCN(CCOc2ccccc2)CC1 | 10.6 |
| FC(F)(F)c1ccc2[nH]c(-c3cccc(-c4cccc(CNCc5cnn(-c6ccccc6)n5)c4)c3)nc2c1 | 0 |
| COc1ccc(NC(=O)[C@H](CC(C)C)Nc2cc(C)nc(NCCc3ccc(F)cc3)n2)cc1 | 9.09 |
| Cc1cccc(CNc2nc(C)cc(NCCC(=O)NCc3cccc(F)c3)n2)c1 | 4.76 |
| COc1ccc(NC(=O)[C@H](CC(C)C)Nc2cc(C)nc(NCCc3ccccc3)n2)cc1 | 16.3 |
| O=C(N[C@@H](Cc1cc(F)cc(F)c1)[C@H](O)CNCc1cccc(C(F)(F)F)c1)c1cc(C2CCCC2)cc(N2CCCC2=O)c1 | 10.5 |
| Nc1c2ccccc2nc2cc(Cl)ccc12 | 4.32 |
| O=S(=O)(Nc1cccc(CCN2CCC(N3CCCCC3)CC2)c1)c1ccccc1C(F)(F)F | 3.39 |
| Clc1cc(Cl)c2c(c1)C(NCCCNc1nc3ccccc3[nH]1)CCO2 (stereo unspecified) | 7.86 |

| Compound | IFI [%] |
| --- | --- |
| CN(C)CCOc1ccc2c(=O)cc(CCc3cccc(F)c3F)n(CC(=O)N(C)Cc3ccc(-c4ccc(C(F)(F)F)cc4)cc3)c2c1 | 2.92 |
| COc1ccc2nccc([C@@H](O)CN3CCC(NC(=O)/C=C/c4ccc5cc(C)[nH]c5c4)CC3)c2c1 | 0.73 |
| COc1ccc2c(c1)CC(C)(C)NC2CCCCCCCCC1NC(C)(C)Cc2cc(OC)ccc21 (stereo unspecified) | 8.63 |
| CCOc1ccc2c(=NN=Cc3ccccc3OC)cc(C)[nH]c2c1 | 3.62 |
| Cc1cc(-c2ccc3c(c2)CCN(CCC2CCC(NC(=O)/C=C/c4cccc(F)c4)CC2)CC3)on1 (stereo unspecified) | 4.48 |
| Cc1ccc(C2(C)CC(C)(C)N(C(=O)COc3ccc4ccccc4c3)c3ccccc32)cc1 (stereo unspecified) | -0 |
| Cc1nnc2c(NC(=O)NC3CCCC3)cc3ccc(-c4cccc(CN(C)C)c4)cc3n12 | 11.1 |
| COc1c(C)cc(I)cc1CNCCCNc1cc(=O)c2ccccc2[nH]1 | 0.74 |
| CC(CN(C)C)C(=O)Nc1cccc(-c2ccc(-c3nc4cc(C(F)(F)F)ccc4[nH]3)cc2)c1 (stereo unspecified) | 6.31 |
| COc1ccccc1CCNc1nc(C)cc(NCCC(=O)Nc2ccccc2)n1 | 7.14 |
| COc1ccccc1NC(=O)Nc1cccc(-c2cccc(-c3nc4cc(C(F)(F)F)ccc4[nH]3)c2)c1 | 5.05 |
| Cc1cc(N[C@@H](Cc2ccccc2)C(=O)Nc2ccccc2)nc(NCCc2cccs2)n1 | 11.6 |
| COc1ccccc1CCNc1nc(C)cc(N[C@@H](Cc2ccccc2)C(=O)NCCOc2ccccc2)n1 | 17.1 |
| CC1=C(C(=O)Nc2cc3cn[nH]c3cc2F)C(c2cccc(NS(C)(=O)=O)c2)CC(=O)N1 (stereo unspecified) | 0.94 |
| Fc1cccc(COc2ccc(Nc3ncnc4sc(C#Cc5ncc[nH]5)cc34)cc2Cl)c1 | 1.71 |
| COc1ccc(-c2cnc(N)c(-c3ccc(C(N)=O)cc3)c2)cc1OC | 3.39 |
| O=C(/C=C/c1ccc(Cl)c(Cl)c1)NCCCCCN1CCC(NC(=O)Nc2ccc3c(c2)OCO3)CC1 | 4.64 |
| Cc1cc(CNCC(CCNc2cc(=O)c3ccccc3[nH]2)NCc2cc(Br)cc(Br)c2)oc1C (stereo unspecified) | 6.67 |
| COC(=O)c1cc(OC)c(OC)cc1NC(=O)NC12CC3CC(CC(C3)C1)C2 | 0.88 |

| Compound | IFI [%] |
| --- | --- |
| Cc1ccc(Cn2cnc3cc(C(=O)Nc4ccc(-c5cccc(CN(C)C)c5)cc4)ccc3c2=O)o1 | 7.92 |
| O=S(=O)(c1c(Cl)cc(Cl)cc1Cl)N1CCCCC(c2ccc(F)c(F)c2)=N1 | 1.55 |
| COc1ccc2nccc([C@@H](O)CN3CCC(NCc4cc5ccccc5nn4)CC3)c2c1 | 3.15 |
| CS(=O)(=O)NCCCNCc1ccc(-c2cccc(-c3nc4cc(F)ccc4[nH]3)c2)cc1 | 3.96 |
| O=C(Nc1cc(F)c(F)c(-c2cccnc2)c1)N1CCc2cc(Cl)c(Cl)cc21 | -0 |
| Nc1ncc(Cc2ccc3c(ccc4ccccc43)c2)c(N)n1 | 0.72 |
| O=C(NCCCCN1CCC(c2ccc3ccccc3c2)CC1)c1ccc(NC(=O)c2ccc(Cl)cc2)cc1 | 2.73 |
| CNC(=O)c1cnc(Nc2ccc3[nH]c(=O)[nH]c3c2)nc1Nc1cccc(OC(C)C)c1 | 4.96 |
| O=C(NC1CC1)c1ccc(N2CCCC(COc3ccc4c(c3)CCCC4)C2)nc1 (stereo unspecified) | -0 |
| CCCCCCCCN1CCCN(C(=O)c2cccc(NC(=O)Nc3ccc4ccccc4c3)c2)CC1 | -0 |
| CCCC(=O)Nc1ccc(OCCCN(Cc2ccccc2C(F)(F)F)c2ccc(C#N)c(C(F)(F)F)c2)cc1 | 2.68 |
| N#Cc1ccc(C=Cc2nccc3c2[nH]c2ccccc23)cc1 | 3.28 |
| COC(=O)c1ccc2c(-c3nc4ccc(OC)cc4[nH]3)c[nH]c2c1 | 4.32 |
| O=C(/C=C/c1ccc(Cl)cc1)NCCCCCN1CCC(C(=O)Nc2ccc(Cl)c(Cl)c2)CC1 | 11.3 |
| CN(C(=O)Cc1ccc(Cl)cc1)C1CCN(CCCCCNC(=O)/C=C/c2ccc(Cl)c(Cl)c2)CC1 | 13.7 |
| COc1ccc(OCCCON)cc1 | 0 |
| O=C(Nc1cccc(-c2cccc(-c3nc4ccccc4[nH]3)c2)c1)c1ccoc1 | 5.36 |
| COc1ccc2nccc([C@@H](O)CN3CCC(NCc4cc5c(Cl)cc(Cl)cc5[nH]4)CC3)c2c1 | 6.34 |
